This is an account of results in patent publication US11178870B2 (priority 2017, dated 2021).

One assay relates to Magnaporthe grisea. It is filed as in vivo. As to conditions: Table 7, Test A.
The test system of a further assay is Phytophthora infestans. It is filed as in vivo. The following applies: Table 7, Test F.
Assay [1] has as its system Colletotrichum orbiculare. As to conditions: 250 ppm sprayed (2.5 ml/pot) before inoculation; assessed 6 to 10 days after inoculation.

On to `CCn1c(-c2ccc(F)cc2F)c(-n2ncc(C)c2Br)cc(Br)c1=O` [Compound 270], for which the “control value, Test A (blast on rice)” value with Magnaporthe grisea is reported as “H (H shows the control value more than 50%)”. In addition, the “control value, Test F (late blight on tomato)” value (“control value, Test F” for short) in the assay on Phytophthora infestans was “L (L shows the control value of 50% or less)”. In addition, the “control value, Test H (anthracnose on cucumber)” value (shortened to “control value, Test H”) in assay [1] was “H (H shows the control value more than 50%)”.

As for `O=c1c(Br)cc(-n2cc(F)cn2)c(-c2c(F)cc(F)cc2F)n1CC(F)F` [Compound 283], in the assay on Magnaporthe grisea, the “control value, Test A (blast on rice)” value is given as “H (H shows the control value more than 50%)”. In addition, the “control value, Test F” value in the assay with Phytophthora infestans was “L (L shows the control value of 50% or less)”. The “control value, Test H” value in assay [1] is recorded as “H (H shows the control value more than 50%)”.

As to `CCn1c(-c2c(F)cc(F)cc2F)c(-n2cc(F)cn2)ccc1=O` [Compound 191], the “control value, Test A (blast on rice)” value with Magnaporthe grisea is on record as “H (H shows the control value more than 50%)”. Besides, in the assay with Phytophthora infestans, the “control value, Test F” value is “L (L shows the control value of 50% or less)”. Also, the “control value, Test H” value in assay [1] is on record as “H (H shows the control value more than 50%)”.

As to `CCn1c(-c2c(F)cccc2Br)c(-n2cc(Cl)cn2)ccc1=O` [Compound 216], the “control value, Test A (blast on rice)” value in the assay on Magnaporthe grisea is given as “L (L shows the control value of 50% or less)”. The “control value, Test F” value in the assay with Phytophthora infestans is “L (L shows the control value of 50% or less)”. In addition, in assay [1], the “control value, Test H” value is on record as “H (H shows the control value more than 50%)”.

As to `CCn1c(-c2ccccc2F)c(-n2ncc(C)c2Cl)cc(Cl)c1=O` [Compound 263], the “control value, Test A (blast on rice)” value in the assay on Magnaporthe grisea is given as “H (H shows the control value more than 50%)”. For the same molecule, the “control value, Test F” value in the assay with Phytophthora infestans was “L (L shows the control value of 50% or less)”. The “control value, Test H” value in assay [1] is “H (H shows the control value more than 50%)”.

On to `CCn1c(-c2ccccc2OC)c(-n2cc(Cl)cn2)cc(Br)c1=O` [Compound 241], for which the “control value, Test A (blast on rice)” value in the assay on Magnaporthe grisea is listed as “L (L shows the control value of 50% or less)”. Also, the “control value, Test F” value with Phytophthora infestans was “L (L shows the control value of 50% or less)”. Further, the “control value, Test H” value in assay [1] is given as “L (L shows the control value of 50% or less)”.

Take `CCn1c(-c2c(F)cc(OC)cc2F)c(-n2cnc(Cl)n2)cc(Cl)c1=O` [Compound 267]: the “control value, Test A (blast on rice)” value with Magnaporthe grisea is reported as “H (H shows the control value more than 50%)”. Moreover, in the assay on Phytophthora infestans, the “control value, Test F” value was “L (L shows the control value of 50% or less)”. The “control value, Test H” value in assay [1] is on record as “H (H shows the control value more than 50%)”.

In the case of `O=c1ccc(-n2cc(Cl)cn2)c(-c2ccccc2Br)n1CC(F)F` [Compound 289], in the assay on Magnaporthe grisea, the “control value, Test A (blast on rice)” value was “L (L shows the control value of 50% or less)”. Moreover, the “control value, Test F” value in the assay on Phytophthora infestans was “L (L shows the control value of 50% or less)”. In addition, in assay [1], the “control value, Test H” value was “L (L shows the control value of 50% or less)”.

For the molecule `O=c1ccc(-n2cc(Cl)cn2)c(-c2ccccc2F)n1CC(F)F` [Compound 276], in the assay with Magnaporthe grisea, the “control value, Test A (blast on rice)” value is “L (L shows the control value of 50% or less)”. In addition, the “control value, Test F” value with Phytophthora infestans was “L (L shows the control value of 50% or less)”. Moreover, the “control value, Test H” value in assay [1] was “L (L shows the control value of 50% or less)”.

For `O=c1ccc(-n2cnc(Cl)c2Cl)c(-c2ccccc2Cl)n1CC(F)F` [Compound 231], the “control value, Test A (blast on rice)” value in the assay with Magnaporthe grisea was “H (H shows the control value more than 50%)”. Moreover, the “control value, Test F” value in the assay with Phytophthora infestans is “L (L shows the control value of 50% or less)”. In assay [1], the “control value, Test H” value is reported as “L (L shows the control value of 50% or less)”.
